This note sets out measurements from PubChem BioAssay AID493208 (National Center for Advancing Translational Sciences (NCATS), 2011).

Screen size: about 44,000 compounds; about 340 (0.77%) were called active. Roughly 5% stayed inconclusive and do not appear here. Calls follow the shape of the dose curve; as a rule, active = well fitted inhibition curve with a large enough effect; inconclusive = small, poorly fitted or top-dose-only effect; inactive = flat fitted curve, though single readings scatter. Some of the results follow.
Potency is read from the fitted curve at half-maximal effect.

The experiment in a line: Acumen qHTS Assay for Inhibitors of the mTORC1 Signaling Pathway in MEF (Tsc2-/-, p53-/-) Cells: Sytravon. Also: nearly all actives have a fitted effect of over 50% in size.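 As to activity change, negative = inhibition: plate controls were DMSO for no effect and rapamycin for full effect.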 Particulars: phospho-rpS6 immunofluorescence/PI, 24 h; series mostly up to 38.3 µM; activity change, negative = inhibition: at the top concentration. In short, it runs like this: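 Tsc2-/-, p53-/- mouse embryonic fibroblasts (empty-vector line) exposed to compound 24 hrs at 37 C, fixed, immunostained for phospho-rpS6 and counterstained with propidium iodide. Acumen laser scanning gives % positive cells from Alexa 488/PI ratio, thresholded using 7.5 nM rapamycin; PI count gives viability.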
On the technique in general: Quantitative high-throughput screening tests each substance at several concentrations.
`CCN(CC)C(=O)c1sc2c(c1C)c(=O)n(-c1ccc(Cl)c(Cl)c1)c(=O)n2Cc1ccccc1C#N`: the “activity change, negative = inhibition” value was inactive: -4.42%.

Regarding `Cc1ccc(N2CCN(C(=O)c3c(C)oc4ncn(CC(C)C)c(=O)c34)CC2)c(C)c1`, the “activity change, negative = inhibition” value is inactive: 2.02%.

Take `CCC(C)NC(=O)c1cc(-c2cccc(OC)c2)on1` (configuration not stated): the “activity change, negative = inhibition” value is inactive: -10.5%.

Consider `Cc1cccc(NC(=O)CSc2ncc3c(n2)-c2ccccc2N(Cc2ccc(F)cc2)S3(=O)=O)c1C`, for which the “activity change, negative = inhibition” value is inactive: -5.95%.

In the case of `Cc1cc(-c2ccc(C)c(S(=O)(=O)N3CCN(c4cccc(C(F)(F)F)c4)CC3)c2)on1`, the “activity change, negative = inhibition” value was inactive: 4.98%.

Take `Cc1cccc(CCNC(=O)c2ccc3c(c2)N(Cc2ccccc2F)C(=O)c2ccccc2S3)c1`: the “activity change, negative = inhibition” value is inactive: -3.39%.

Regarding `Cc1ccc(Oc2c(C(F)(F)F)oc3c(CN4CCC(C)CC4)c(O)ccc3c2=O)cc1`, the “activity change, negative = inhibition” value was inactive: 4%.

With `CCc1cccc(NC(=O)CCC(=O)N2CCSc3ccccc32)c1`, the “activity change, negative = inhibition” value was inactive: -22.2%.

Consider `CN(C)c1ccc(-c2nc(-c3cc4cc(Cl)ccc4oc3=O)cs2)cc1`, for which the “activity change, negative = inhibition” value is inactive: -3.05%.

As for `Cc1cc2ccccc2n1-c1ccc(C(=O)N2CCC(C(=O)NCc3ccc(Cl)cc3)CC2)s1`, the “activity change, negative = inhibition” value is inactive: 0%.

`CC(=O)N1CCCc2cc(S(=O)(=O)N3CCC(C(=O)Nc4cccc(Cl)c4C)CC3)ccc21`: the “activity change, negative = inhibition” value was inactive: 1.12%.

Consider `CCN(CC)C(=O)c1c(-c2ccccc2)c(-c2ccccc2)nn(C)c1=O`, for which the “activity change, negative = inhibition” value is inactive: 1.54%.

With `CCc1ccc(C(=O)c2cn(CC(=O)Nc3cc(C)ccc3C)c3nc(C)ccc3c2=O)cc1`, the “activity change, negative = inhibition” value is inactive: -0.896%.

Turning to `O=C(CSc1nnc(-c2cccs2)o1)Oc1ccccc1`, the “activity change, negative = inhibition” value is inactive: 0.0248%.

For the compound `COc1ccc(N2CCN(C(=O)CCn3nc(C)c(S(=O)(=O)N4CCCC4)c3C)CC2)cc1`, the “activity change, negative = inhibition” value is inactive: 0%.

On to `O=C(CSc1nnc(-c2ccccc2)o1)c1cccc([N+](=O)[O-])c1`, for which the “activity change, negative = inhibition” value was inactive: -11.6%.

`O=C(Cn1ncc2c3ccccc3n(Cc3ccc(Cl)cc3)c2c1=O)NCc1ccccn1`: the “activity change, negative = inhibition” value is inactive: -0.708%.

As for `COC(=O)c1cc(S(=O)(=O)N2CCN(c3cccc(C)c3)C(C)C2)cn1C` (configuration not stated), the “activity change, negative = inhibition” value was inactive: -1.18%.

Turning to `CCN(CC)CCCNC(=O)c1ccc2c(=O)n(CCc3ccccc3)c(=O)[nH]c2c1`, the “activity change, negative = inhibition” value was inactive: -22.7%.

Turning to `CCOc1ccc(C(=O)Nc2ccc3nc(SCCOc4ccccc4)sc3c2)cc1`, the “activity change, negative = inhibition” value was inactive: -4.44%.

Turning to `CCc1ccc(-n2cnc3cc(C(=O)NCc4ccc(C)cc4)ccc32)cc1`, the “activity change, negative = inhibition” value is inactive: 4.96%.

Regarding `CCOC(=O)c1c(C)[nH]c(CCC(=O)NCc2ccc(CC)cc2)c1C`, the “activity change, negative = inhibition” value is inactive: 0%.

Regarding `CC(=O)c1cccc(NC(=O)Cn2nc(C)n3cccc3c2=O)c1`, the “activity change, negative = inhibition” value was inactive: -14.3%.

`Cc1ccc(-n2ncc(C(=O)NCc3cccs3)c2C2CCN(C(=O)OC(C)(C)C)CC2)c(C)c1`: the “activity change, negative = inhibition” value is inactive: 6.77%.

As for `CCC(Sc1nc2cc(OC)c(OC)cc2c2nc(-c3ccccc3)nn12)C(=O)Nc1cccc(C)c1` (configuration not stated), the “activity change, negative = inhibition” value was inactive: -5.79%.

For `O=C(NCc1ccccc1Cl)c1ccc(CSCc2ccccc2Cl)o1`, the “activity change, negative = inhibition” value is inactive: 11.9%.

As to `Cc1ccc(CSc2nnc(CCNC(=O)OC(C)(C)C)o2)cc1`, the “activity change, negative = inhibition” value was inactive: 2.85%.

As for `COc1ccccc1OC(C)C(=O)Nc1ccc(-c2nc3ccccc3s2)cc1` (configuration not stated), the “activity change, negative = inhibition” value was inactive: 1.41%.

For `CCc1ccc(NC(=O)CCn2nc(-c3ccccc3OC)c3c(C)cc(C)nc32)cc1`, the “activity change, negative = inhibition” value was inactive: -3.36%.

Regarding `COc1ccc(NC(=O)CCn2c(=O)c3cccn3c3cccnc32)c(OC)c1`, the “activity change, negative = inhibition” value is inactive: -3.24%.

`CCC(C(=O)NCc1ccccc1)n1nc(C)c2sc3ccccc3c2c1=O` (configuration not stated): the “activity change, negative = inhibition” value was inactive: -5.41%.

In the case of `CN(Cc1ccccc1)C(=O)Nc1ccc2c(c1)N(C)C(=O)c1ccccc1S2`, the “activity change, negative = inhibition” value is inactive: -6.02%.

On to `COc1ccc(-c2cc(C(=O)OC(C)C(=O)c3ccccc3)c3cccc(Cl)c3n2)cc1` (configuration not stated), for which the “activity change, negative = inhibition” value was inactive: -11.1%.

Take `c1ccc(Nc2c(-c3c[nH]c4ccccc34)nc3ccccn23)cc1`: the “activity change, negative = inhibition” value was inactive: -6.49%.

`CC(C)Nc1ccc(-c2nc(-c3ccco3)no2)cc1[N+](=O)[O-]`: the “activity change, negative = inhibition” value is inactive: 4.45%.

With `Cc1ccc(C2c3[nH]c4ccccc4c3CCN2C(=O)c2cccc(C)c2)cc1` (configuration not stated), the “activity change, negative = inhibition” value was inactive: -8.22%.

Take `CCOCCCNC(=O)C(c1ccc(C)cc1)N(Cc1ccc2c(c1)OCO2)C(=O)c1ccc(NC(C)=O)cc1` (configuration not stated): the “activity change, negative = inhibition” value is inactive: 3.46%.

Consider `CCC(C)NC(=O)c1ccccc1NC(=O)CN1C(=O)c2cccc3cccc1c23` (configuration not stated), for which the “activity change, negative = inhibition” value is inactive: 13.5%.

As to `COc1cc2cc(CNc3ccc(C)cc3)c(=O)n(CC(=O)Nc3ccc(F)cc3F)c2cc1OC`, the Potency was active: 5.21 µM.

Take `COc1cc(C(=O)NCC(c2cccs2)S(=O)(=O)c2ccc(F)cc2)cc(OC)c1OC` (configuration not stated): the “activity change, negative = inhibition” value was inactive: -1.72%.

Consider `CC(C)NC(=O)CN1C(=O)COc2ccc(S(=O)(=O)N3CCCCCC3)cc21`, for which the “activity change, negative = inhibition” value is inactive: -10.1%.

For the compound `CCOC(=O)c1c(C)[nH]c(CCC(=O)Nc2ccc(C)c(F)c2)c1C`, the “activity change, negative = inhibition” value is inactive: -1.45%.

For the compound `Cc1cccc(OCC(=O)Nc2ccc(Cl)c(-c3nc4ncccc4o3)c2)c1C`, the “activity change, negative = inhibition” value was inactive: -1.83%.

As to `Cc1cccc(NC(=O)c2nnn(CC(=O)Nc3ccc(C(C)C)cc3)c2N)c1C`, the “activity change, negative = inhibition” value is inactive: 7.43%.

With `CCC(=O)N1CCc2cc(Br)cc(S(=O)(=O)CCC(=O)NCc3ccc(Cl)cc3)c21`, the “activity change, negative = inhibition” value is inactive: 0.223%.

On to `Cc1nc(Oc2ccc(F)cc2Cl)c2oc3ccccc3c2n1`, for which the “activity change, negative = inhibition” value is inactive: 0.349%.

Regarding `CCOc1ccccc1NC(=O)CN(C)S(=O)(=O)c1ccc2nc(C)sc2c1`, the “activity change, negative = inhibition” value is inactive: -0.339%.
